This is one part of the list. The full chains were built here from the parent and the listed change. Inactive controls read about 0.05.
B1: TEV protease; numbered along this chain (parent)
chain: MGESLFKGPRDYNPISSSICHLTNESDGHTTSLYGIGFGPFIITNKHLFRRNNGTLVVQSLHGVFKVKDTTTLQQHLVDGRDMIIIRMPKDFPPFPQKLKFREPQREERICLVTTNFQTKSMSSMVSDTSCTFPSGDGIFWKHWIQTKDGQCGSPLVSTRDGFIVGIHSASNFTNTNNYFTSVPKNFMELLTNQEAQQWVSGWRLNADSVLWGGHKVFMVKPEEPFQPVKEATQL

Variants of: B1
Assay: raw area under fraction-flipped curve 0-4 h after induction (AUC4h, not background-subtracted), DNA-recorder readout of cleavage of the substrate (dimensionless); higher = more cleavage of the substrate by the protease variant
Details: temperature: 34 °C; time window: 0-4 h after rhamnose induction
Procedure: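 In vivo DNA recorder in E. coli TOP10(DE3) ΔrhaA at 34 °C. Each TEVp single-site mutant (parent TEVp 0) is paired with a single-site variant of the 7-mer TEVs (canonical ENLYFQ|S). The substrate sits between flexible linkers in a Bxb1-sfGFP-TEVs-SsrA fusion, so cleavage stabilises Bxb1 and speeds flipping of a recombination array, read by NGS. The value is the raw area under the fraction-flipped curve over 0-4 h after rhamnose induction (AUC4h), with ≥20 reads per time point. It is not background-subtracted; inactive controls average about 0.047.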
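Further: Bxb1 expression induced with 0.2% (w/v) L-rhamnose at OD600 near 0.5, cultures sampled hourly, flipped fraction per protease–substrate barcode pair counted by paired-end Illumina sequencing.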

Row | Variant | area with substrate ENLYFAS | area with substrate ENLYFCS | area with substrate ENLYFES | area with substrate ENLYFFS | area with substrate ENLYFGS | area with substrate ENLYFHS | area with substrate ENLYFKS | area with substrate ENLYFLS | area with substrate ENLYFMS | area with substrate ENLYFNS | area with substrate ENLYFPS | area with substrate ENLYFRS | area with substrate ENLYFSS | area with substrate ENLYFVS | area with substrate ENLYFWS | area with substrate ENLYFYS | area with substrate ENLYFDS | area with substrate ENLYFIS | area with substrate ENLYFTS
1 | C20F | 0.0475 | 0.0373 | 0.0542 | 0.0378 | 0.0667 | 0.0355 | 0.0659 | 0.0655 | 0.0459 | 0.0297 | 0.0494 | 0.0528 | 0.0916 | 0.0461 | 0.0499 | 0.0595 |  |  | 
2 | C20M | 0.056 | 0.0558 | 0.0564 | 0.0785 |  | 0.0726 |  |  | 0.0686 |  | 0.0497 |  | 0.06 | 0.0587 |  | 0.0135 | 0.0479 | 0.0468 | 0.0674
3 | C20R | 0.0368 | 0.0408 | 0.0405 | 0.0596 | 0.0499 | 0.0469 | 0.0435 |  | 0.0481 | 0.0515 | 0.0549 | 0.0484 | 0.0418 |  | 0.0311 | 0.0409 |  | 0.0427 | 0.0423
4 | L22K | 0.0455 |  |  | 0.06 |  |  | 0.044 | 0.0455 | 0.0485 | 0.0527 | 0.0426 | 0.0492 | 0.036 | 0.0368 | 0.0409 | 0.0654 | 0.0556 | 0.041 | 0.0412
5 | L22V | 0.0707 | 0.0469 | 0.0567 | 0.0757 |  | 0.0554 | 0.0602 | 0.0526 | 0.0729 | 0.0683 | 0.0663 |  | 0.0496 | 0.0593 | 0.0548 | 0.0506 | 0.0532 | 0.056 | 0.0597
6 | G37P | 0.0512 |  | 0.0523 | 0.0188 | 0.03 |  | 0.0387 |  | 0.0429 |  | 0.0446 |  | 0.0489 |  | 0.0452 |  |  | 0.0434 | 
7 | G28C | 0.0362 | 0.0618 | 0.0597 | 0.0649 |  |  | 0.0545 | 0.0602 | 0.0538 | 0.0528 | 0.0453 | 0.0642 | 0.0627 | 0.0509 | 0.052 |  | 0.0503 | 0.0546 | 0.0565
8 | S32H | 0.0528 | 0.0611 | 0.0653 | 0.0656 | 0.0578 | 0.065 | 0.0772 | 0.0479 | 0.065 | 0.0619 | 0.0581 | 0.0693 | 0.0565 | 0.055 | 0.0541 | 0.0534 | 0.0536 | 0.0588 | 0.0569
9 | S17D | 0.0528 | 0.061 | 0.0626 | 0.0637 | 0.0612 | 0.0559 | 0.0737 | 0.0642 | 0.0632 |  | 0.062 | 0.048 | 0.0681 | 0.0577 | 0.0576 | 0.0679 |  | 0.0565 | 0.0661
10 | S17F | 0.0541 | 0.0099 | 0.0687 | 0.0583 | 0.0435 | 0.0608 | 0.0601 | 0.0524 | 0.0646 | 0.0582 | 0.0539 | 0.0683 | 0.051 | 0.0577 | 0.0511 | 0.0516 | 0.0643 | 0.0477 | 0.055
11 | I42Y | 0.0367 | 0.054 | 0.0584 | 0.056 | 0.0381 | 0.0455 | 0.0431 | 0.0466 | 0.0332 | 0.0491 | 0.0503 | 0.0461 | 0.0381 |  | 0.0417 | 0.0399 |  | 0.0484 | 0.0441
12 | I42C | 0.0614 | 0.0563 | 0.0623 | 0.0621 | 0.0512 | 0.0607 | 0.0695 | 0.0525 | 0.0575 | 0.0532 | 0.063 |  |  | 0.0651 | 0.0569 | 0.0508 | 0.0627 | 0.0515 | 0.0625
13 | H21G | 0.0523 | 0.0519 | 0.0614 | 0.0681 | 0.0599 | 0.0482 | 0.0699 | 0.0476 | 0.0598 | 0.0596 | 0.0556 | 0.0615 | 0.0663 | 0.058 |  |  |  | 0.0483 | 0.0492
14 | H21N | 0.0588 |  | 0.0621 | 0.0774 | 0.0698 | 0.0517 | 0.0617 | 0.0597 | 0.0598 | 0.0599 | 0.0715 | 0.0535 | 0.0769 | 0.0547 | 0.0595 | 0.0505 |  | 0.0564 | 0.061
15 | H21Y | 0.0356 | 0.0584 | 0.0606 | 0.0671 |  | 0.0574 | 0.0525 |  | 0.0647 | 0.0615 | 0.0572 | 0.0643 |  |  | 0.0545 | 0.0786 | 0.0737 | 0.0579 | 0.0584
16 | H21D | 0.0568 | 0.0473 |  | 0.0618 |  | 0.0526 | 0.0495 | 0.0628 | 0.0552 |  | 0.0546 | 0.0593 | 0.0675 | 0.0556 | 0.0592 | 0.0396 |  | 0.0517 | 0.0526
17 | H29A | 0.0559 | 0.0521 | 0.066 | 0.0687 |  | 0.0534 | 0.0625 | 0.0819 | 0.0834 | 0.0675 | 0.0575 | 0.0573 | 0.0818 | 0.0444 | 0.0625 | 0.0519 |  | 0.0655 | 0.0636
18 | H29L | 0.058 | 0.0507 | 0.078 | 0.07 |  | 0.0652 | 0.0676 | 0.0643 | 0.0752 | 0.0715 | 0.0505 |  | 0.0584 | 0.0679 | 0.0716 | 0.0553 |  | 0.0624 | 0.0571
19 | H29R | 0.0452 |  |  | 0.0716 |  | 0.0608 | 0.0457 |  | 0.059 | 0.0668 | 0.0681 | 0.0652 | 0.0631 |  | 0.0396 |  |  | 0.0657 | 0.063
20 | H29D | 0.0646 | 0.0548 | 0.0664 | 0.0767 | 0.0645 | 0.0626 |  |  | 0.0515 | 0.0587 | 0.0598 |  | 0.0629 | 0.0615 | 0.0535 |  | 0.0587 | 0.0592 | 0.0561
21 | H29E | 0.0565 |  | 0.0702 | 0.0647 |  |  |  |  | 0.0679 |  | 0.0605 | 0.06 | 0.0571 | 0.0452 | 0.06 |  |  | 0.0559 | 0.0602
22 | E25P | 0.0585 | 0.0454 | 0.0526 | 0.0557 |  | 0.0657 | 0.0552 |  |  | 0.0607 | 0.0514 | 0.0553 |  | 0.0543 |  | 0.0549 | 0.0548 | 0.0594 | 0.0521
23 | D27Q | 0.0647 | 0.0663 |  | 0.0613 | 0.0671 |  | 0.0523 |  | 0.0695 | 0.0641 | 0.0493 | 0.044 |  | 0.054 | 0.042 | 0.0506 |  | 0.0534 | 0.0529

Source: the supplement of paper PMC12217912
